Results published in PubChem BioAssay AID1963576 (National Center for Advancing Translational Sciences (NCATS), 2024).
Hit rate of the full screen: of about 46,000 compounds, about 60 (0.1%) were called active. Roughly 3% stayed inconclusive and do not appear here. Calls follow the shape of the dose curve; as a rule, active = well fitted inhibition curve with a large enough effect; inconclusive = small, poorly fitted or top-dose-only effect; inactive = no such curve, though single readings can be large or run the other way. The list shows a part of the results.

Experiment: Primary qHTS assay for Inhibitors of ovarian cancer metastasis using an organotypic tumor microenvironment (TME) model. Also: nearly all actives have a fitted effect of over 65% in size.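 As to activity change, negative = inhibition: plate controls were DMSO wells for no effect and tomatine positive control wells for full effect.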
Details: SKOV3ip1-GFP adhesion/invasion on 3D omental model, fluorescence; series mostly up to 45.8 µM; activity change, negative = inhibition: at the top concentration
Summary of the method: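 A 3D layer of primary human omental fibroblasts, mesothelial cells, fibronectin and collagen I, grown 48 hr, received SKOV3ip1-GFP cells in serum-free medium plus compounds at 0.36-46 umol/L. After 2 hr RT and 16 hr 37 C, fixed adherent GFP cells were counted; normalized to DMSO and tomatine.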

Row | Structure (SMILES) | activity change, negative = inhibition | outcome
1 | COc1ccc(-c2ccc(NS(=O)(=O)c3ccc(OC)c(OC)c3)cc2)nn1 | inactive: -6.76% | –
2 | Cc1ccc(S(=O)(=O)NC2(C(F)(F)F)C(=O)Nc3c2c(=O)[nH]c(=O)n3-c2ccccc2)cc1 (centres undefined) | – | inactive
3 | Cc1c(C(=O)NCc2cccc(Cl)c2)sc2nc3n(c(=O)c12)CCC3 | inactive: -9.86% | –
4 | Cc1cn2c(=O)cc(COc3ccccc3NC(=O)c3ccco3)nc2s1 | inactive: 13.2% | –
5 | Cc1ccc(CNS(=O)(=O)c2cc3[nH]c(=O)c(=O)[nH]c3cc2C)cc1 | inactive: 4.02% | –
6 | CSc1nc2sc3c(c2c(=O)n1Cc1ccccc1)CCC(C(C)(C)C)C3 (centres undefined) | inactive: 2.73% | –
7 | Cc1ccc(C(=O)Nc2ccc3nc(SCC(=O)N4CCCc5ccccc54)sc3c2)cc1 | inactive: -35.1% | –
8 | O=C(COC(=O)c1cc(-c2ccccc2)nc2ccccc12)c1ccc(Br)cc1 | inactive: -3.53% | –
9 | CCN1CCN(CCCNC(=O)c2cnn(-c3ccc(C)cc3C)c2C2CCN(C(=O)OC(C)(C)C)CC2)CC1 | inactive: -14.8% | –
10 | NC(=O)c1nc(-c2ccc(F)c(F)c2)nc2c1[nH]c(=O)n2-c1cccc(Cl)c1 | – | inactive
11 | O=S(=O)(c1ccc(Br)cc1)c1nnn2c1nc(N1CCOCC1)c1sccc12 | inactive: -2.85% | –
12 | CCOc1ccccc1NC(=O)CN1C(=O)COc2ccc(S(=O)(=O)NC3CCCC3)cc21 | inactive: -6.51% | –
13 | CCCNC(=O)c1ccc(Cn2c(=O)c3cccn3c3cccnc32)cc1 | inactive: 2.92% | –
14 | CCc1ccccc1NC(=O)c1ccc2c(c1)nnn2C1CCCC1 | – | inactive
15 | Cc1ccc(CNC(=O)Cc2ccc(NC(=O)N3CCSc4ncccc43)cc2)cc1 | inactive: -9.75% | –
16 | CC(C)(C)NC(=O)N1CCC(C(=O)O)CC1 | inactive: -4.26% | –
17 | O=C(Nc1cccc(C(F)(F)F)c1)c1cccc(C(=O)Nc2cccc(C(F)(F)F)c2)c1 | inactive: -2.67% | –
18 | Cc1ccc(N2CCN(S(=O)(=O)c3ccc(Cl)c4ccccc34)CC2)c(C)c1 | – | inactive
19 | CCOC(=O)c1c(C)c(-c2ccccc2)n(CC(=O)Nc2cc(C)cc(C)c2)c1C | inactive: -9.22% | –
20 | O=C1CCCc2cc(S(=O)(=O)NCC3CCC(C(=O)NCc4ccc(F)cc4)CC3)ccc2N1 (centres undefined) | – | inactive
21 | COc1ccccc1CNC(=O)CCC1N=C2c3ccccc3N=C(SCc3ccc(Cl)cc3)N2C1=O (centres undefined) | inactive: 0.375% | –
22 | COCCCNC(=O)CCCn1c(=O)c2cccn2c2ccccc21 | – | inactive
23 | COc1cccc(CSc2nc(-c3ccccc3F)nc3c2Cc2c(CO)cnc(C)c2O3)c1 | inactive: 5.24% | –
24 | COc1ccc(-n2nc3c(N4CCC(C(=O)NCCc5ccccc5)CC4)nnc(C)c3c2C)cc1 | inactive: 5.47% | –

Row | Structure (SMILES) | activity change, negative = inhibition | outcome
25 | O=C(Cn1ncc2c(=O)oc3ccccc3c21)N1CCN(c2ccc(Cl)cc2)CC1 | – | inactive
26 | O=C(CSc1nnc(-c2cccc(F)c2)c(-c2cccc(F)c2)n1)NC1CCCCC1 | inactive: 4.21% | –
27 | CCOC(=O)c1c(NC(=O)COc2ccccc2Br)sc2c1CCCCC2 | inactive: 3.1% | –
28 | Cc1ccc(-c2nnc(Nc3ccccc3)c3ccccc23)cc1S(=O)(=O)N1CCN(C)CC1 | inactive: 1.04% | –
29 | CC(C)(C)c1ccc(C(=O)N(Cc2ccc(F)cc2)Cc2ccco2)cc1 | – | inactive
30 | COc1ccc2cc(CNc3ccc(C)cc3)c(=O)n(CC(=O)Nc3cccc(Cl)c3C)c2c1 | – | inactive
31 | COc1cc(Cl)c(C)cc1NC(=O)c1cnn(-c2ccc(F)cc2F)c1C1CCN(C(=O)OC(C)(C)C)CC1 | inactive: 38.5% | –
32 | CCN(CC)S(=O)(=O)c1nnc(NC(=O)c2ccc(Br)cc2)s1 | inactive: 8.16% | –
33 | CCn1cc2nc(SCc3ccc(F)cc3)n(CCc3ccccc3)c(=O)c2n1 | – | inactive
34 | O=C(c1cccs1)N(Cc1cccnc1)c1nc2c(F)cc(F)cc2s1 | inactive: 0.234% | –
35 | COc1ccc(-c2nc(CSc3nnc(C)n4c3cc3oc(C)cc34)c(C)o2)cc1OC | – | inactive
36 | O=S(=O)(c1ccccc1)c1nc(-c2cccc(Cl)c2)oc1N1CCOCC1 | inactive: -6.15% | –
37 | COc1ccc(CCNC(=O)C2CCCN(S(=O)(=O)c3ccc4c(c3)oc(=O)n4C)C2)cc1OC (centres undefined) | – | inactive
38 | Cc1cc(NC(=O)Cn2c(=O)oc3cc(S(=O)(=O)N4CCCC4)ccc32)ccc1Br | inactive: -3.35% | –
39 | COc1ccc(NC(=O)C2=C(C)Nc3ncnn3C2c2ccc[nH]2)cc1 (centres undefined) | – | inactive
40 | CCOC(=O)c1c(C)sc(-c2c(-c3cccc(Cl)c3)[nH]c3c2c(=O)n(C)c(=O)n3C)c1O | inactive: -4.46% | –
41 | Cc1cc(C)c(Cn2c(=O)n(CCCCC(=O)NCc3ccccc3Cl)c(=O)c3ccccc32)c(C)c1 | – | inactive
42 | CCC(=O)Nc1ccccc1-c1nc2ccccc2n(C(CC)C(=O)Nc2cccc(Cl)c2)c1=O (centres undefined) | – | inactive
43 | CCOc1ccc(-c2cc3nc(C4CCN(C(=O)OC(C)(C)C)CC4)c(C(=O)Nc4c(C)cccc4C)cn3n2)cc1 | inactive: -3.65% | –
44 | Cc1ccc(CNC(=O)CCc2cn(Cc3ccc(C)cc3)c3ccccc23)cc1 | inactive: -0.939% | –
45 | COc1ccc(CCN2C(=O)c3[nH]nc(-c4ccccc4O)c3C2c2ccccc2)cc1 (centres undefined) | inactive: 4.99% | –
46 | C=Cc1ccc(Cn2ccn(-c3ccc(F)c(F)c3)c(=O)c2=O)cc1 | inactive: -7.88% | –
47 | CC(=O)Nc1ccc(NC(=O)C2CCN(c3cnccn3)CC2)cc1 | – | inactive
48 | COc1cccc(NC(=O)c2csnn2)c1 | inactive: -0.309% | –

Row | Structure (SMILES) | activity change, negative = inhibition | outcome
49 | CC(=O)N1CCc2cc(CNC(=O)Nc3ccc(Br)c(C)c3)ccc21 | inactive: 5.73% | –
50 | Fc1ccc2c(c1)-c1c(cnc3cc(-c4ccc(Cl)cc4)nn13)CO2 | inactive: 1.99% | –
51 | CCc1ccccc1N(C)S(=O)(=O)c1ccc2c(c1)C(C)(C)C(=O)N2C | – | inactive
52 | Cc1c(C(=O)N(C)C)sc2c1c(=O)n(-c1ccc(F)cc1)c(=O)n2Cc1ccccc1C#N | inactive: 2.63% | –
53 | CC(COc1ccccc1)N(CCCl)Cc1ccccc1 (centres undefined) | inactive: -8% | –
54 | O=C(NCc1ccccc1F)C(=O)NCC(c1ccc2c(c1)OCO2)N1CCOCC1 (centres undefined) | inactive: -8.06% | –
55 | CCCCCc1ccc(-c2ccc(Br)cc2)nc1 | inactive: -3.09% | –
56 | Cc1ccc(-n2nc(C(=O)N3CCN(c4ccccc4F)CC3)c(=O)n(C)c2=O)cc1 | inactive: 4.57% | –
57 | CC(=O)N1CCc2c(sc3c2c(=O)n(-c2ccccc2)c(=O)n3CC(=O)Nc2cc(C)cc(C)c2)C1 | inactive: -6.47% | –
58 | CCOc1ccc(CCNC(=O)c2c(C)oc3ncn(CC(C)C)c(=O)c23)cc1OCC | inactive: 6.26% | –
59 | CCOc1ccc(CNC(=O)CCc2c(C)nn(-c3ccc(N4CCCCC4)nn3)c2C)cc1 | inactive: 0.811% | –
60 | Cc1cc(Br)ccc1NC(=O)CSc1c2c(nc3ccccc13)CCC2 | inactive: 1.19% | –
61 | CCc1ccc(NC(=O)CSc2nc(C)c(C(=O)Nc3ccccc3)c(-c3ccc(OC)c(OC)c3)c2C#N)cc1 | inactive: -0.928% | –
62 | O=C(OCc1cc(=O)n2nc(-c3cccs3)sc2n1)c1ccccc1Cl | inactive: -4.78% | –
63 | COc1cccc(CSc2nc3n(n2)C(c2ccc(C(=O)O)cc2)C(C(=O)Nc2ccccc2)=C(C)N3)c1 (centres undefined) | – | inactive
64 | CCOc1ccccc1NC(=O)CSc1nc2c(oc3ccccc32)c(=O)n1-c1ccc(F)cc1 | – | inactive
65 | COc1ccc(NC(=O)c2cc3cc(C)ccc3[nH]2)cc1 | inactive: 1.15% | –
66 | COc1ccccc1N1CCN(c2ccc(=O)n(CC(=O)NCc3ccc(F)cc3)n2)CC1 | inactive: 6.36% | –
67 | CSc1ccc(CCNC(=O)c2cc(C)nc3c2c(C)nn3-c2cccc(F)c2)cc1 | inactive: 1.23% | –
68 | CC(C)(C)C(=O)CSc1nc2ccsc2c(=O)n1Cc1ccccc1Cl | – | inactive
69 | Cc1c(C(=O)N2CCCCCC2)c(S(=O)(=O)NCc2ccccc2)c(C)n1C | inactive: 7.1% | –
70 | CSc1ccccc1-c1nnc(NC(=O)c2ccc3c(c2)OCCO3)o1 | – | inactive
71 | Cc1ccc2nc(SCc3nc(-c4ccc(Cl)cc4)no3)[nH]c2c1 | – | inactive
72 | CC(=O)Nc1ccccc1-c1nc2ccccc2n(CC(=O)Nc2cccc(C)c2C)c1=O | inactive: 4.28% | –

Row | Structure (SMILES) | activity change, negative = inhibition | outcome
73 | O=C(Nc1ccc(F)c(Cl)c1)Nc1c[nH]c(=O)[nH]c1=O | inactive: -4.14% | –
74 | O=C(CSc1nc(=O)n(CCN2CCOCC2)c2c1CCC2)Nc1ccc(Cl)c(Cl)c1 | inactive: -8.15% | –
75 | O=C(Nc1ccc(OC(F)(F)F)cc1)c1sccc1NCc1ccnc2ccccc12 | inactive: 1.43% | –
76 | CCOC(=O)c1cc(-c2ccccc2)n(CCC(=O)Nc2ccccc2CC)c1C | – | inactive
77 | Cc1cc(C)cc(N2C(=O)CSC23C(=O)N(Cc2c(F)cccc2Cl)c2ccccc23)c1 (centres undefined) | – | inactive
78 | Cc1cc2c(cc1S(=O)(=O)Nc1cccc(Cl)c1C)n(C)c(=O)c(=O)n2C | inactive: 3.05% | –
79 | CCOc1ccc(CC(=O)Nc2c(C(=O)c3ccccc3)oc3ccc(Cl)cc23)cc1OCC | inactive: 27.2% | –
80 | COc1ccc(N2CCN(S(=O)(=O)c3ccc(-c4coc(C)n4)cc3)CC2)cc1 | inactive: -3.58% | –
81 | CC(=O)N1c2ccc(S(=O)(=O)Nc3ccc(C)c(Cl)c3)cc2CC1C (centres undefined) | inactive: -0.794% | –
82 | Cc1cccc(CSc2nc3c([nH]c4ccccc43)c(=O)n2C)c1 | inactive: 4.98% | –
83 | CCCCC(CC)CNC(=O)Cc1ccc(-n2c(=O)[nH]c3ccccc3c2=O)cc1 (centres undefined) | inactive: -3.93% | –
84 | CCCCC12CN3CC(C)(CN(C1)C3c1c[nH]c3ccccc13)C2=O (centres undefined) | inactive: -7.84% | –
85 | Cc1ccc(NC(=O)C(CC(C)C)N2Cc3ccccc3C2=O)cc1F (centres undefined) | inactive: 13.2% | –
86 | CNS(=O)(=O)c1cn(CC(=O)N2CCN(c3ccc(C(C)=O)cc3)CC2)cc1S(=O)(=O)NC | – | inactive
87 | CCc1cc2c(cc3c(=O)n(CCCC(=O)NCc4cccc(Br)c4)ncn32)s1 | inactive: -4.57% | –
88 | Cc1cc(Nc2ccc(F)cc2F)nc(-n2nc(C)cc2C)n1 | inactive: -7.56% | –
89 | COc1cc2c(cc1OC)n(CC(=O)c1cc(C)ccc1C)c(=O)n1nc(CCn3nc(C)cc3C)nc21 | inactive: -14.6% | –
90 | CC1=C(C(=O)Nc2cccnc2)C(c2ccc(C)cc2)n2nc(SCc3ccccc3F)nc2N1 (centres undefined) | inactive: 6.28% | –
91 | Cc1c(CCNC(=O)c2ccc(C(C)(C)C)cc2)sc2nc(-c3ccc(F)cc3)nn12 | – | inactive
92 | CN(C)c1ccc(NC(=O)Cn2c(SCc3ccc(F)cc3)nc3ccncc32)cc1 | inactive: 8.2% | –
93 | COc1ccc(CCNC(=O)CSc2cn(CCNC(=O)c3c(F)cccc3F)c3ccccc23)cc1OC | – | inactive
94 | Cc1ccccc1OCC(=O)Nc1ccc(S(=O)(=O)N(Cc2ccccc2)c2ccccc2)cc1 | inactive: -16.3% | –
